Laboratory results published in patent publication US11187705B2, “Method for labeling specifically living microorganisms comprising the use of modified monosaccharide compounds” (CENTRE NATIONAL DE LA RECHERCHE SCIENTIFIQUE (CNRS), priority 2015, dated 2021).

Test system: Pseudomonas fluorescens Migula
Conditions: 10 mM, 24 hours; ATCC 4927
Procedure: All strains were grown in a rotary shaker (160 rpm) at 30 or 37° C.
Overnight cultures were diluted 100 times in fresh medium (final volume 100 μl) containing Kdo-N3(I-1) or Ara-N3(Ia) (10 mM). Microorganisms were incubated at 30 or 37° C. for 24 hours and then washed 3 times with phosphate buffer (0.05 M, pH 7.5) by centrifugation at 13,000×g for 2 min at room temperature.
CuSO4 and TGTA, at a final concentration of 2 mM and 4 mM respectively, were mixed overnight in phosphate buffer (0.05 M, pH 7.5) at 37° C. under vigorous shaking. Next, aminoguanidine, sodium ascorbate and A488-yne (6a) or A594-yne (6b) at a final concentration of 4 mM, 5 mM and 1 mM respectively were added to CuSO4/TGTA overnight mix. […] Finally, cells were then washed 3 times with phosphate buffer by centrifugation at 14,000×g for 2 min at room and analyzed by microscopy.
Microorganisms were inoculated onto glass cover slips and covered with a thin (1 mm of thickness) semisolid 1% agar pad made with dilute LB (1/10 in phosphate buffer (0.05 M, pH 7.5)). Images were recorded with epifluorescence automated microscope (Nikon TE2000-E-PFS, Nikon, France) equipped with a CoolSNAP HQ 2 camera (Roper Scientific, Roper Scientific SARL, France) and a 100×/1.4 DLL objective. Excitation light was emitted by a 120 W metal halide light and signal was monitored using appropriate filters. […]

Compound	labeling (fluorescence, metabolic incorporation of the chemical reporter)
[N-]=[N+]=NC[C@H]1OC(O)[C@@H](O)[C@@H]1O (stereo partly drawn) [Ara-N3, 5-Azido-5-deoxy-D-arabinofuranose]	+
[N-]=[N+]=NC[C@@H](O)C1OC(O)(C(=O)O)CC(O)[C@H]1O (some centres unmarked) [Kdo-N3, reference compound]	+
